# Measured values from PubChem BioAssay AID463173 (ICCB-Longwood Screening Facility, Harvard Medical School, 2010).
# The campaign covered roughly 52,000 compounds. About 4,300 (8.3%) were called active. Rule as the data show it: active = survival mostly below about 52% (no sharp cut-off); inactive = mostly above about 56%. The list shows a part of the results.
# Test system: DeltatarO mutant
# Assay: growth inhibition of S. aureus wild type versus tarO mutant, primary screen, teichoic acid synthesis inhibitors, RN4220, OD600 (AID 463173)
# Details: OD600, 18 h, active compounds read low, screened at 18.75 µg/mL (by protocol)
row,Compound,survival
1,COc1ccc(CNC(=O)c2ccc3c(c2)nc2n3CCOC2)c(OC)c1,inactive: 70%
2,Cc1ccc(CN(Cc2ccco2)C(=O)COc2ccc(C(C)C)cc2)cc1,inactive: 89%
3,CCOc1ccc(CCNC(=O)CN2N=C(c3ccccc3)CCC2=O)cc1OCC,inactive: 88%
4,Cc1cccc(N2CCN(c3cccc(C)c3)C2c2cccnc2)c1,inactive: 107%
5,CC(=O)c1ccc(NC(=O)CSc2nc(-c3cccc(F)c3)nc3c2c(=O)n(C)c(=O)n3C)cc1,inactive: 74%
6,CCOC(=O)c1cnc2c(CC)cccc2c1NCCO,inactive: 95%
7,CCC(=O)C1=C(c2cccc(OC)c2)N(C(=O)CC)n2c(nnc2C2CCCCC2)S1,inactive: 60%
8,COc1cccc(NC(=O)C2CCN(c3nn4cc(-c5ccc(F)cc5)nc4s3)CC2)c1,inactive: 73%
9,Cc1cccc(C)c1OCc1nc2c3c(-c4ccccc4)c(-c4ccccc4)oc3ncn2n1,inactive: 68%
10,Cc1ccc(NC(=O)Cn2c(=O)oc3cc(S(=O)(=O)NCc4ccccc4)ccc32)cc1,inactive: 71%
11,CCn1cc(C(=O)N2CCN(c3ccc(C(C)=O)cc3)CC2)c2cc(OC)c(OC)cc2c1=O,inactive: 164%
12,Cc1ccc(-c2cc(C(F)(F)F)c(C#N)c(SCC(=O)Nc3ccccc3)n2)cc1,active: 53%
13,O=C1c2ccc(-c3ccc4c(c3)C(=O)N(CCO)C4=O)cc2C(=O)N1CCO,inactive: 87%
14,CCOc1cccc(C2c3c(-c4cc(C)ccc4O)n[nH]c3C(=O)N2Cc2ccco2)c1 (stereo not drawn),active: 8%
15,Cc1ccc(CNC(=O)c2cc3c(=O)n(Cc4cccnc4)ccc3nc2C)cc1,inactive: 93%
16,CCOC(=O)C(C)NC(=O)c1c(C)oc2ncn(CC(C)C)c(=O)c12 (stereo not drawn),inactive: 84%
17,CCOC(=O)C1CCN(C(=O)c2ccc3c(=O)n4nc(Nc5cc(C)ccc5C)sc4nc3c2)CC1,inactive: 84%
18,COc1ccc(OC)c(CCNC(=O)c2csc3c2CCCCC3)c1,active: 44%
19,O=C(Cn1c(=O)n(-c2ccccc2Cl)c(=O)c2sc3ccccc3c21)NC1CCCCC1,inactive: 109%
20,N#Cc1cccc(NC(=O)C2CCN(S(=O)(=O)c3ccc4[nH]c(=O)ccc4c3)CC2)c1,inactive: 75%

row,Compound,survival
1,Cc1ccccc1-n1nc(CO)c(C(=O)NCc2cccs2)n1,inactive: 79%
2,Cc1ccc(CN2CCN(CC(=O)Nc3ccc(C)c(C)c3)S2(=O)=O)cc1,inactive: 88%
3,Cc1c(NC(=O)c2nc3ccccc3nc2N2CCCCC2)cccc1[N+](=O)[O-],inactive: 100%
4,Cc1ccccc1OC(=O)CSc1nnc(-c2ccc(F)cc2)o1,inactive: 63%
5,Cc1cccc2c1-c1sc(C(=O)N(C)c3cccc(C(F)(F)F)c3)cc1CO2,inactive: 52%
6,Cc1csc2nc(COc3ccccc3NC(=O)c3ccc(C(C)(C)C)cc3)cc(=O)n12,inactive: 88%
7,CC(=O)C1=C(c2ccc(C)c(C)c2)N(C(C)=O)n2c(nnc2-c2ccc(Cl)cc2)S1,inactive: 124%
8,CC(=O)Nc1cc(-n2cnnn2)ccc1C,inactive: 75%
9,CCNC(=O)c1nn(-c2ccccc2C)nc1CO,inactive: 106%
10,CCNC(=S)N1CCC(NC(=O)c2ccccc2)CC1,inactive: 110%
11,Cc1ccc(OCC(=O)N2CCC(C)CC2)cc1C,inactive: 71%
12,Cc1ccc(C(=O)Nc2ccc(-c3nc4ccccc4s3)cc2C)cc1C,inactive: 55%
13,COC(=O)c1ccccc1NC(=O)Nc1nnc(N2CCC(C)CC2)s1,inactive: 90%
14,CCOc1cc(CNC(=O)NC2COc3ccc(OC)cc3C2)cc(OCC)c1OCC (stereo not drawn),inactive: 69%
15,COc1ccc(N2CC(NC(=O)CCCc3ccccc3)CC2=O)cc1 (stereo not drawn),active: 32%
16,CCOC(=O)c1cc(C)n(CC2CCC(C(=O)Nc3ccc(C)c(F)c3)CC2)c1C (stereo not drawn),inactive: 64%
17,O=C(O)c1cc2n(n1)C(C(F)(F)F)CC(C1CC1)N2 (stereo not drawn),inactive: 91%
18,Fc1ccccc1Cn1c(-c2ccccc2)nc2ccccc21,active: 1%
19,COCCCNC(=O)CSc1nc2c(sc3ccccc32)c(=O)n1CCCC(=O)NCCOC,inactive: 88%
20,Cc1ccccc1OCc1nnc(SCc2cc(=O)c3cccc(F)c3[nH]2)n1C,inactive: 78%

row,Compound,survival
1,CC(=O)c1ccc(NC(=O)COCc2cc(-c3ccco3)on2)cc1,inactive: 131%
2,Cc1ccc(C)c(CSc2nc3ccncc3n2CC(=O)Nc2ccc(N(C)C)cc2)c1,inactive: 75%
3,Cc1cccc2nc(-c3cccc(NS(=O)(=O)c4ccccc4)c3)cn12,active: 35%
4,CCC(C)NC(=O)CSc1nc2c(sc3ccccc32)c(=O)n1Cc1ccccc1Cl (stereo not drawn),inactive: 87%
5,Clc1ccccc1CNc1ncnc2c1c(-c1ccccc1)cn2-c1ccccc1,inactive: 88%
6,Cc1cc(C)c(NC(=O)Nc2ccc3snnc3c2)c(C)c1,inactive: 118%
7,Cc1ccc(C)c(Cn2c3ccccc3c3cnn(CC(=O)NCc4ccccc4)c(=O)c32)c1,inactive: 93%
8,Cc1ccc(NC(=O)CSc2nc(-c3ccco3)nc3cc(=O)[nH]n23)cc1C,inactive: 135%
9,COc1ccc2nc(NC(=O)c3nc(S(=O)(=O)Cc4cccc(C)c4)ncc3Cl)sc2c1,inactive: 49%
10,Cc1cc(NC(=O)C2CCN(S(=O)(=O)c3ccc4[nH]c(=O)oc4c3)CC2)ccc1Br,inactive: 115%
11,CCC1CCCCN1CCCNC(=O)CN1C(=O)CSc2ccc(S(=O)(=O)N3CCOCC3)cc21 (stereo not drawn),inactive: 70%
12,CCOC(=O)Cn1nc(C)c(NC(=O)COc2ccc(Cl)cc2C)c1C,inactive: 71%
13,CCOc1ccccc1NC(=O)Cn1ccn(Cc2ccc(C)cc2)c(=O)c1=O,inactive: 78%
14,CCCn1c(SCC(=O)N(C(C)C)C(C)C)nnc1-c1cccnc1,inactive: 74%
15,Cc1ccc(-c2cc(C(=O)Oc3ccccc3)c3cc(C)ccc3n2)cc1,inactive: 76%
16,COc1cc2c(cc1OC)CN(C(=O)CCC(=O)O)CC2,inactive: 102%
17,CC(c1ccccc1)n1cc(C(=O)NCC2COc3ccccc3O2)nn1 (stereo not drawn),inactive: 95%
18,COc1ccc2c(c1)c1c(c(=O)n(-c3cccc(Cl)c3)c(=O)n1CC(=O)N1CCCC1)n2C,inactive: 77%
